Experimental data from article PMC11905140.
No constants are given. Whether binding was seen depends on the method and setting. Binding seen in cells or lysates may run through a third protein. Some entries that bind do so weakly or less than the wild type.

Protein sequences, listed by entry. Tags and fused reporters are not part of them. Lines headed by an entry give the natural chain unless they say otherwise; changes in a name come on top. Chains listed by the source or under a name are the forms on record and can include a tag or linker. Residues count along the entry.
UniProt O75362: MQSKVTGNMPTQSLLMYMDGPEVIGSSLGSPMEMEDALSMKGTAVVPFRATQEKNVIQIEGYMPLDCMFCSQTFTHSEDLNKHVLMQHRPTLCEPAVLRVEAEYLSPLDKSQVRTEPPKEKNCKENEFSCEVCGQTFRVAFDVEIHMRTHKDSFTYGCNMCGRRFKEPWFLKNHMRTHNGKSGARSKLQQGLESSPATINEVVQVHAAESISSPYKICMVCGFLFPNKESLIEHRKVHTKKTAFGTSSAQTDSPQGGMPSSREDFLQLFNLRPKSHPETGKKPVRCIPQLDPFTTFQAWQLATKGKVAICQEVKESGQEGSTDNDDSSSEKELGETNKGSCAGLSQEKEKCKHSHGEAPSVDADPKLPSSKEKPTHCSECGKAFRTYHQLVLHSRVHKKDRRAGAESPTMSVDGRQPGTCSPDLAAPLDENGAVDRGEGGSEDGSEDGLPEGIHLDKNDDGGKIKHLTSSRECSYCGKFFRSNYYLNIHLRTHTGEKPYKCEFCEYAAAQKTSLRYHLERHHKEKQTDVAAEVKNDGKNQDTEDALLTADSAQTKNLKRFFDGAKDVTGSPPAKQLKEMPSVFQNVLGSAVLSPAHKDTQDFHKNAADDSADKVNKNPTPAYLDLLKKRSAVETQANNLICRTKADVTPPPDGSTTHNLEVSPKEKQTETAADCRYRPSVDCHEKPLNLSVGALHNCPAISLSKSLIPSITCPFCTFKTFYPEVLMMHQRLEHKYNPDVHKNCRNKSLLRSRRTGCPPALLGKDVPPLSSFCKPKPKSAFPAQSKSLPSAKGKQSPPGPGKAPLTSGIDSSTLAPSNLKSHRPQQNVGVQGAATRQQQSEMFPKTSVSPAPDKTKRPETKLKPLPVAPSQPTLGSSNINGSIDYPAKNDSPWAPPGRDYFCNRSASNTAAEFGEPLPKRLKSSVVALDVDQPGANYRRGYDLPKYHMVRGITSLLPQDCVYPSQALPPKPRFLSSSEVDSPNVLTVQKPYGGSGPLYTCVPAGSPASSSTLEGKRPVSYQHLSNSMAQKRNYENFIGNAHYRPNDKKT
Flag-tagged ZNF217_(1-272) truncation: residues 1-272 of O75362
UniProt Q13547: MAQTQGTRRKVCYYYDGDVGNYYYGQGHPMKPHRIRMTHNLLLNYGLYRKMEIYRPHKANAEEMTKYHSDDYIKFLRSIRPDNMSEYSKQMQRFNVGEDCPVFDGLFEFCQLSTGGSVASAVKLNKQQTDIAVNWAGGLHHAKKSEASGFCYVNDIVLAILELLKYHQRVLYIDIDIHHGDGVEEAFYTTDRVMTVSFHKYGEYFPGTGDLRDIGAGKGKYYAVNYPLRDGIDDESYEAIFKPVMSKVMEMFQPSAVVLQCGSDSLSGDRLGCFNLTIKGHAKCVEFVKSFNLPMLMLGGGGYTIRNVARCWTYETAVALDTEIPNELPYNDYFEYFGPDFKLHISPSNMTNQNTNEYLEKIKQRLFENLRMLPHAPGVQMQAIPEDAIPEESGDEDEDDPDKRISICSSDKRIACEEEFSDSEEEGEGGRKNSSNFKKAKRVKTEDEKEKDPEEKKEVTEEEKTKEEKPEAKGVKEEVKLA
UniProt Q9UKL0: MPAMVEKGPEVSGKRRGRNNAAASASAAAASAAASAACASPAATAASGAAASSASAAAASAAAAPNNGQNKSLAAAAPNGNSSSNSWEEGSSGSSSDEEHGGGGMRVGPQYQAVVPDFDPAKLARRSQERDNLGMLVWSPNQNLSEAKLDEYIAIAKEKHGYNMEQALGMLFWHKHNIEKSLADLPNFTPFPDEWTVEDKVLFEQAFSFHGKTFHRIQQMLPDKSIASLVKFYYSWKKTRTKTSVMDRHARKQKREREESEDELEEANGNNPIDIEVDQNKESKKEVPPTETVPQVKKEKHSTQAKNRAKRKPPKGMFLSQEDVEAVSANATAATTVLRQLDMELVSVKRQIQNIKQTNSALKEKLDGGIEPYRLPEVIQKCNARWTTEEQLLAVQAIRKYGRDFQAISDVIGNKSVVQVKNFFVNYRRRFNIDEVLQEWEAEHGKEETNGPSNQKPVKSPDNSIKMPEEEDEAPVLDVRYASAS
UniProt Q9Y6M1: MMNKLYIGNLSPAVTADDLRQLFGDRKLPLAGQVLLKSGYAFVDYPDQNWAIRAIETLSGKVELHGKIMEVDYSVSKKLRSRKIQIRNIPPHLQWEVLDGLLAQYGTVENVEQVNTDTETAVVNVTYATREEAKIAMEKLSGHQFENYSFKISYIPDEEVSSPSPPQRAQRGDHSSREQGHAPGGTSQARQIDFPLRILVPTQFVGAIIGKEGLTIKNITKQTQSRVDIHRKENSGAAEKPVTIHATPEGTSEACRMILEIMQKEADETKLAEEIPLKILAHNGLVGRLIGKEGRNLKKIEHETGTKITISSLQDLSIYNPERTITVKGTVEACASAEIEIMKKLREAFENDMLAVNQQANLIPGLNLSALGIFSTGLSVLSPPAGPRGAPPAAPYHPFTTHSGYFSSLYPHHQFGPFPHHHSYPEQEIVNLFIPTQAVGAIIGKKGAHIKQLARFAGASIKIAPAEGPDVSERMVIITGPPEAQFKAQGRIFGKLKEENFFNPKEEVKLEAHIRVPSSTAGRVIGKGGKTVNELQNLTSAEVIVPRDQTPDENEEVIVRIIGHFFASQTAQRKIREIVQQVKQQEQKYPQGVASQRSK
UniProt Q9H4Z3: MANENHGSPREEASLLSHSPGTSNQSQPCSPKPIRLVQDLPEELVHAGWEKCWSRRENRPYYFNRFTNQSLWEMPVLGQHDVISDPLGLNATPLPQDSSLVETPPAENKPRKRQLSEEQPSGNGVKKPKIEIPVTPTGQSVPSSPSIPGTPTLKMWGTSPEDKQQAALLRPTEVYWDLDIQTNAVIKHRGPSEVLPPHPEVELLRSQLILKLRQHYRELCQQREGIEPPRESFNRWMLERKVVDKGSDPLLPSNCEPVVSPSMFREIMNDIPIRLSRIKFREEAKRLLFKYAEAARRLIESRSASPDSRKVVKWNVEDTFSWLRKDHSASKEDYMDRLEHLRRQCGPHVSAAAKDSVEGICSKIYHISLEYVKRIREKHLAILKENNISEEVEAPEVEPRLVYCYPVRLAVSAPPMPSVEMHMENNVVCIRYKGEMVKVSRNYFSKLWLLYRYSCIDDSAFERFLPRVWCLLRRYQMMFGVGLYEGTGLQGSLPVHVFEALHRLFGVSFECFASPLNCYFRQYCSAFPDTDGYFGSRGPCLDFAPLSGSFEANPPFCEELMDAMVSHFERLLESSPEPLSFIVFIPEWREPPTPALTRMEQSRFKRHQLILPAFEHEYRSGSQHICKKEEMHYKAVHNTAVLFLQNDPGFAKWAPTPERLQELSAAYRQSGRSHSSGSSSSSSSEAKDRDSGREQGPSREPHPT
UniProt Q92769: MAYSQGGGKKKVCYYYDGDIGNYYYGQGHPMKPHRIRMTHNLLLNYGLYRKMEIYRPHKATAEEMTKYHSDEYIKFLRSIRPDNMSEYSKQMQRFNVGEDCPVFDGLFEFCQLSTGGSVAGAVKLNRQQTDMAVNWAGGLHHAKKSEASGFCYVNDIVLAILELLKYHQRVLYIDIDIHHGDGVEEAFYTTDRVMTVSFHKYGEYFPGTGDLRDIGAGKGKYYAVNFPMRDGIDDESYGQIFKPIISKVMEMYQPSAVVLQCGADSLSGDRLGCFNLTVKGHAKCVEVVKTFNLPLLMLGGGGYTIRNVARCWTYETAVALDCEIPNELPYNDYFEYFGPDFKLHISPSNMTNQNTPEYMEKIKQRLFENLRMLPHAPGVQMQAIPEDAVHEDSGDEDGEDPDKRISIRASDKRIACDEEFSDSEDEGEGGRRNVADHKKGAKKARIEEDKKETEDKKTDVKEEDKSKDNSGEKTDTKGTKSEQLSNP

Experiments:
[1] = molecular target: Flag-tagged ZNF217_(1-272) truncation (human) (UniProt O75362); assay: co-IP; exogenous co-IP: anti-Flag IP from RIPA lysates of KOPN-8 and SUP-B15 cells with ectopic Flag-tagged ZNF217 (or ZNF217 1-272) or an empty vector; Protein A/G magnetic beads, overnight at 4 °C; wash 10 mM Tris-HCl pH 7.5, 1 mM EDTA, 150 mM NaCl, 1% Triton X-100, 0.2 mM sodium orthovanadate; Western blot
[2] = molecular target: ZNF217 (zinc finger protein 217), endogenous (human (endogenous in KOPN-8 and SUP-B15)) (UniProt O75362); assay: co-IP; endogenous co-IP: anti-ZNF217 IP (IgG control) from RIPA lysates of KOPN-8 and SUP-B15 cells; Protein A/G magnetic beads, overnight at 4 °C; wash 10 mM Tris-HCl pH 7.5, 1 mM EDTA, 150 mM NaCl, 1% Triton X-100, 0.2 mM sodium orthovanadate; Western blot
[3] = molecular target: Flag-tagged ZNF217 (zinc finger protein 217) (human) (UniProt O75362); assay: co-IP; exogenous co-IP: anti-Flag IP from RIPA lysates of KOPN-8 and SUP-B15 cells with ectopic Flag-tagged ZNF217 (or ZNF217 1-272) or an empty vector; Protein A/G magnetic beads, overnight at 4 °C; wash 10 mM Tris-HCl pH 7.5, 1 mM EDTA, 150 mM NaCl, 1% Triton X-100, 0.2 mM sodium orthovanadate; Western blot

binding [1] | binding [2] | binding [3] | Substance
binds | – | – | histone deacetylase 1 (HDAC1) (from UniProt Q13547 1-482) (enzyme)
binds | binds | binds | CoREST (Co-repressor of Repressor Element 1 Silencing Transcription factor) (from UniProt Q9UKL0 1-485)
– | – | no binding | IGF2BP2 (from UniProt Q9Y6M1 1-599)
– | – | no binding | PCIF1 (from UniProt Q9H4Z3 1-704)
binds | – | – | HDAC2 (from UniProt Q92769 1-488) (enzyme)
